Experimental data published in publication PMC4336329 (PLoS ONE, 2015).
Among all 310,000 compounds or so, about 14,000 (4.5%) showed an effect of 50% or more. The effect is printed as a negative number. This is one part of the list.

Target: human ether-à-go-go-related gene (hERG) potassium channel (human, UniProt Q12809)
Test: primary screen, population patch clamp on CHO cells stably expressing hERG
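Note: peak tail current of the secondary pulse compared with the same well before compound.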

Chain of human ether-à-go-go-related gene (hERG) potassium channel (Q12809 whole entry, looked up): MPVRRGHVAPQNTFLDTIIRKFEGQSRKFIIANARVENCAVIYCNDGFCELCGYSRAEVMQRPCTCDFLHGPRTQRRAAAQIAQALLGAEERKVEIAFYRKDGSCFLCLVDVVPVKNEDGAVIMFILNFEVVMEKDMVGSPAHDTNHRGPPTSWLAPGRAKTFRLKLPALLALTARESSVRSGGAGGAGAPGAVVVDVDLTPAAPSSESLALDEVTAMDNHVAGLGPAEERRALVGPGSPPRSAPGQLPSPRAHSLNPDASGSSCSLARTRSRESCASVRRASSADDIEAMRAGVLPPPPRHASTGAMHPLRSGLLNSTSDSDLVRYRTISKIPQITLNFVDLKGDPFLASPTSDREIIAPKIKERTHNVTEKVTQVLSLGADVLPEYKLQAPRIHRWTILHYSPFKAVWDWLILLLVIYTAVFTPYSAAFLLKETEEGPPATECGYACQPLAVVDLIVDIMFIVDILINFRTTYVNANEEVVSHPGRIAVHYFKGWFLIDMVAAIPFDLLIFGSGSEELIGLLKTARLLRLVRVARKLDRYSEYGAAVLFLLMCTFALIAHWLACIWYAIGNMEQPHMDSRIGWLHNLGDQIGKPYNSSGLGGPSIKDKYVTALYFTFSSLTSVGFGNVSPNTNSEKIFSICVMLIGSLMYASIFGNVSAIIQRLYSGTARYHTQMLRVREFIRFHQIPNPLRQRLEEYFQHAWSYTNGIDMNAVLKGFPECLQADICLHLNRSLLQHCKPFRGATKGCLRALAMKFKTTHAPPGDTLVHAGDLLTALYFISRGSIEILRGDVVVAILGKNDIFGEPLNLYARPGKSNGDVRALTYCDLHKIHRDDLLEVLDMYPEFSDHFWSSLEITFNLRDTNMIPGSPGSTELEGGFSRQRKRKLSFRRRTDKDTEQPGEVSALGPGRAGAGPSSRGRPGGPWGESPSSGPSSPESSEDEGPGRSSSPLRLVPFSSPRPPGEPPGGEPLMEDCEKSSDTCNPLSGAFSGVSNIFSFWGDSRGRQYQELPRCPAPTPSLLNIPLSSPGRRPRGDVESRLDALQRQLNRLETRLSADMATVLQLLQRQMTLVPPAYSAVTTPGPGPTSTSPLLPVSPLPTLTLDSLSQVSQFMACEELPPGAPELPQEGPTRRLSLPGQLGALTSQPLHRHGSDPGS

Row | SMILES | hERG current change (%, negative = inhibition) at 10uM [%]
1 | Cl.O=C(CNC1CCN(Cc2ccccc2)CC1)Nc1ccc(S(=O)(=O)N2CCCCC2)cc1 | -69.7
2 | COc1cccc(/C=N/NC(=O)c2ccc3nc[nH]c3c2)c1O | 12.6
3 | Cn1c(CNC(=O)c2ccc(Cl)cc2)nnc1SCC(=O)NC1CCCC1 | -3.79
4 | CCNC(=O)CN1C(=O)NC(Cc2ccccc2)(Cc2ccccc2)C1=O | -0.689
5 | Cc1ccc2c(c1)nc(-n1nc(C)cc1C)c1nnnn12 | -1.26
6 | Cc1cc(N2CCN(S(=O)(=O)c3ccc4ccccc4c3)CC2)n2ncnc2n1 | -77.7
7 | CNC(=O)C(NC(=O)Nc1ccc(C)cc1)C(C)(C)C (stereo not shown) | 9.61
8 | CC(=O)Nc1ccc(NC(=O)CCCn2cnc3ccccc3c2=O)cc1 | 19.2
9 | Fc1ccc2nc(C(F)(F)F)cc(N3CCOCC3)c2c1 | 8.72
10 | O=C(O)c1cccc(Sc2cc(Cl)ccc2C(=O)O)c1 | 12.2
11 | COc1ccccc1-c1noc(-c2ccccc2C(=O)Nc2cccnc2)n1 | 4.58
12 | O=[N+]([O-])c1ccc(Cl)c2cccnc12 | 23.6
13 | CCCNC(=O)NS(=O)(=O)c1ccc(Cl)cc1 | 8.45
14 | CC(/C=N/NC(=O)Cn1cnc2c1c(=O)n(C)c(=O)n2C)=C\c1ccco1 | -10.2
15 | Cc1cc(C)c(N2C(=O)C3C4CC(=O)C(c5ccccc54)C3C2=O)c(C)c1 (stereo not shown) | 3.52
16 | Cc1cnc(C)c(N2CCN(Cc3cn(C)nc3-c3cccc(Cl)c3)CC2)n1 | -49.6
17 | CC(=O)c1c(C)[nH]c(C(=O)OCC(=O)Nc2ncc(Cl)c(C)c2Cl)c1C | -4.17
18 | FC(F)(F)c1ccc(Oc2ccc(Cl)cc2Br)nc1 | 20.1
19 | COc1ccc2nc3oc(C(=O)Nc4ccc(OC)c(OC)c4)cc3cc2c1 | 10.8
20 | CCc1ccc(N(CC(=O)NC(C)(C)C)C(=O)CCC(=O)Nc2ccccn2)cc1 | 10.5
21 | CC(Sc1ccc2nnc(-c3ccc(F)cc3)n2n1)C(=O)O (stereo not shown) | -3.43
22 | COc1ccc(CNC(=O)C(C)NCc2ccccc2Cl)cc1.Cl (stereo not shown) | 0.444

Row | SMILES | hERG current change (%, negative = inhibition) at 10uM [%]
23 | COc1ccc(C(=O)/C=C/c2ccccc2OC)c(OC(=O)c2ccc([N+](=O)[O-])cc2)c1 | 14.9
24 | COc1ccc(CC(=O)N2CCCc3ccccc32)cc1 | 1.07
25 | O=S(=O)(c1cccc(F)c1)N1CCN(Cc2ccc3c(c2)OCO3)CC1 | -35.8
26 | Cc1csc(=O)n1CCC(=O)OCc1nnc(-c2ccccc2)o1 | -8.45
27 | CCCCNC(=O)c1onc(CSc2ccc(F)cc2)c1C(=O)NCCCC | -10.2
28 | COC(=O)c1sccc1NC(=O)/C=C/c1ccc(Cl)cc1 | -11.2
29 | CCc1ccc2[nH]c(=O)c(C(c3nnnn3CC3CCCO3)N3CCN4CCCC4C3)cc2c1 (stereo not shown) | -10.4
30 | O=C(c1cccs1)N1CCCC(c2nc3c(nnn3Cc3ccccc3)c(=O)[nH]2)C1 (stereo not shown) | -33.5
31 | COc1cc(OC)cc(C(=O)N[C@H](C(=O)OCC(=O)Nc2cccc(F)c2)C(C)C)c1 | -5.55
32 | CNC(=S)N1CCN(c2nc3ccccc3s2)CC1 | -11.4
33 | COc1ccc(S(=O)(=O)Nc2cccc(-c3ccc4nncn4n3)c2)c(OC)c1 | -40.6
34 | c1coc(-c2nnc(SCc3cn4ccccc4n3)o2)c1 | -29.7
35 | Cc1csc(NC(=O)CSc2nnc(Cc3cccn3C)n2CCc2ccccc2)n1 | -4.35
36 | COc1cc(NC(=O)c2ccc(C(=O)c3ccccc3)cc2)cc(OC)c1OC | 8.62
37 | COc1cccc(CN(CC(=O)NC2CCCCC2)C(=O)c2csnn2)c1 | 16.2
38 | O=C(NNC(=S)Nc1ccc(Cl)cc1)c1ccccc1OC(F)F | 16.7
39 | CCCCN(CCCC)C1=Nc2ccccc2N/C1=C(/C#N)C(=O)OCC | -3.64
40 | COc1ccccc1/C=C/c1nc(S(=O)(=O)c2ccccc2)c(N2CCC(C(N)=O)CC2)o1 | -13
41 | CC(C)n1cnc2c(Nc3cccc(Cl)c3)nc(NCCCO)nc21 | -49.5
42 | Cn1cnnc1SCC(=O)NCCc1ccccc1 | 17.1
43 | COc1ccc(CNC(=O)CN2CCN(S(=O)(=O)c3ccccc3)CC2)cc1 | -9.14
44 | C/C(=N/OC(=O)c1ccc(C(F)(F)F)cc1)c1oc(C)nc1C | 9.14

Row | SMILES | hERG current change (%, negative = inhibition) at 10uM [%]
45 | CCOC(=O)c1c(NC(=O)/C=C/c2ccco2)sc(C)c1C | 14.4
46 | NC(=O)C1CCN(C2CC(=O)N(Cc3ccc(N4CCCC4=O)cc3)C2=O)CC1 (stereo not shown) | 8.18
47 | Cn1c(C(=O)NCCN2CCOCC2)cc2c(=O)n3ccccc3nc21 | 10
48 | CCOC(=O)c1cc(C(=O)NC(C)c2ccccc2)c(C)[nH]c1=O (stereo not shown) | 7.6
49 | COc1ccccc1NC(=O)Nc1nc(CC(=O)Nc2ccc(OC)c(OC)c2)cs1 | -6.21
50 | CCOC(=O)C1(CCc2ccccc2)CCN(C(=O)C2CCCO2)CC1 (stereo not shown) | -13
51 | CN(CC(=O)Nc1ccc(N2CCOCC2)cc1)CC(=O)Nc1cccc(C#N)c1 | -13.9
52 | CCOC(=O)C1CCN(C(=O)CSc2ccccc2Cl)CC1 | -9.59
53 | COc1ccc(CNS(=O)(=O)c2ccc(-n3cnnn3)c(C)c2)cc1 | -15.3
54 | COc1ccc(S(=O)(=O)NCc2cccnc2)cc1 | 15.6
55 | Cc1ccc(CN2CCN(c3ncccn3)CC2)c(C)c1 | -12.9
56 | COc1ccc2oc(C(=O)OCC(=O)NCc3ccco3)c(C)c2c1 | -10.1
57 | CCCc1nc(-c2cc3cc(C)ccc3[nH]c2=O)no1 | 10.2
58 | O=C1CCCN1S(=O)(=O)c1ccccc1 | 12.5
59 | CC1CC(C)CN(S(=O)(=O)c2ccc3c(c2)oc(=O)n3CC(=O)NCc2cccnc2)C1 (stereo not shown) | -17.2
60 | Fc1ccc(OCCOCCNCC2CCCO2)cc1 (stereo not shown) | -7.19
61 | COCCCn1c(SCC(=O)c2ccccc2)nc2ccccc2c1=O | 13
62 | Cc1ccc(C(=O)N[C@H](C(=O)OCC(=O)c2ccc[nH]2)C(C)C)cc1 | -16.8
63 | COc1ccc(OC)c(NC(=O)Cc2ccc(NC3=NC4CS(=O)(=O)CC4S3)cc2)c1 (stereo not shown) | 11.4
64 | CC1(C)Cc2c(c(N3CCCC3)nc3sc(C(=O)Nc4ccccc4)c(N)c23)CO1 | 17.6
65 | CN(C(=O)Cn1cc([N+](=O)[O-])ccc1=O)C1CCCCC1 | 8.32
66 | N#C/C(=C\c1ccc(C#N)cc1)C(=O)N1CCCC1 | 7.75

Row | SMILES | hERG current change (%, negative = inhibition) at 10uM [%]
67 | CC(=O)c1cnc(Nc2cccc(Cl)c2Cl)s1 | 11.6
68 | Cc1cccc(-n2c(Cc3cc(=O)[nH]c(=O)[nH]3)nnc2SCC(=O)N2CCCCC2)c1 | -5.38
69 | COc1nnc(-c2ccc(N3CCOCC3)c(NC(=O)C3CCCCC3)c2)c2ccccc12 | -37.3
70 | CCOC(=O)N1CCN(C(=O)C2CCCCC2)CC1 | 7.06
71 | O=C(NC12CC3CC(CC(C3)C1)C2)N1CCN(c2ccccc2)CC1 | -11
72 | Cc1cccc(N(C)S(=O)(=O)c2cc3c(cc2C)n(C)c(=O)c(=O)n3C)c1 | -27.3
73 | CCOc1ccccc1NC(=O)CCS(=O)(=O)c1cccc2nsnc12 | 1.09
74 | Cc1cc(Cl)c(OCCCCNC(C)(C)C)c(Br)c1.O=C(O)C(=O)O | -40.7
75 | Cc1nn(CC(C)C)c(Cl)c1C(=O)N(c1ccc(Cl)cc1F)S(C)(=O)=O | 10.9
76 | COc1ccccc1NC(=O)c1cc(-c2cc(OC)c(OC)c(OC)c2)nc2ccccc12 | 3.32
77 | COc1ccc2c(c1O)C(=O)c1ccccc1C2=O | 3.24
78 | CCOC(=O)N1CCC2(CC1)CC(=O)c1cc(O)ccc1O2 | -4.03
79 | CCc1ccc(OCCCC(=O)Nc2ccc(S(N)(=O)=O)cc2)cc1 | 13.5
80 | O=C(NNC1CC(=O)N(c2cccc(Cl)c2)C1=O)c1cccnc1 (stereo not shown) | 1.47
81 | N#Cc1cccc(OC(=O)c2ccc3c(=O)n4c(nc3c2)CCC4)c1 | -20
82 | COc1ccccc1-c1cc(C(F)(F)F)nc(S(=O)(=O)CCCC(=O)N2CCCCC2C)n1 (stereo not shown) | -2.71
83 | COc1ccc(OC)c(C(c2nnnn2Cc2ccccc2)N2CCN(C3CCCCC3)CC2)c1.Cl (stereo not shown) | -53.9
84 | N=C1/C(=C\c2ccc(Br)o2)C(=O)N=C2SC(CC(=O)N3CCCCC3)=NN12 | 6.66
85 | O=C(NNC(=O)C12CC3CC(CC(C3)C1)C2)c1ccco1 | 26.7
86 | CC(C)CNS(=O)(=O)c1ccc(CCC(=O)N2CCN(Cc3ccccc3)CC2)cc1 | -35.2
87 | CCOc1cc(/C=N/O)cc(Br)c1OC | -4.85
88 | CC(C)(C)OC(=O)NCCCCCNC(=O)c1[nH]cnc1C(=O)Nc1nccs1 | -5.06
